In US20260216362A1, “ANTI-BDCA2 ANTIBODY-DRUG CONJUGATE AND USE THEREOF” (DUALITY BIOLOGICS (SHANGHAI) CO., LTD., priority 2022, published 2026):

Key:
human PBMC cells = experiment: Inhibition by humanized antibodies of IFNα release from human PBMC cells stimulated by CpG-A; type: cell-based; conditions: Table 4, humanized antibodies; read-out: EC50, inhibition of release of cytokine IFNα from human PBMC cells stimulated by CpG-A
Description: A series of humanized candidate antibody molecules were selected and subjected to the function detection of inhibiting the release of the cytokine IFNα from the human PBMC cells stimulated by CpG-A. The cryopreserved human PBMC cells were thawed and incubated in a complete culture medium (1640+10% FBS+1×NEAA+1×L-Glutamine) overnight for 18 h. The next day, the PBMC cells were collected and centrifuged at 600 g for 8 min, and the supernatant was discarded. The cells were resuspended to 8×10^6 cells/mL in a culture medium (1640+10% FBS), and the mixture was added to a 3799 cell culture plate at 100 μL/well. The test antibody was diluted in a 10-fold gradient (0.0001 nM-10 nM, and 0 concentration point was used as a control) with the culture medium (1640+10% FBS), and the diluted antibody was added to the PBMCs at 50 μL/well. The cells were resuspended and then incubated at 37° C. for 6 h. 50 μL of CpG-A (2 μM, Invitrogen, tlrl-2216-5) diluted in the culture medium (1640+10% FBS) was added to each well and mixed, followed by incubation at 37° C. for another 20 h. […]
The antibody MT1/3/5 (Mabtech, 3425-1H-20) was diluted to 4 μg/mL with PBS, and added to a CORNING ELISA plate at 100 μL/well. […] The values at OD450 nm were read on an ELISA plate reader, and curves were fitted using GraphPad Prism6. […]

recombinant Human BDCA2 = biological target: T1, recombinant Human BDCA2 (Homo sapiens, UniProt Q8WTT0); experiment: Affinity assay of humanized antibodies by BIAcore (SPR); conditions: 1:1 binding model
T1 construct: extracellular domain (Asn45-Ile213) of human BDCA2 (hBDCA2); human IgG1 Fc (fused via a linker) (N); made in house; host or cells: 293E
T1 sequence (Q8WTT0 45-213): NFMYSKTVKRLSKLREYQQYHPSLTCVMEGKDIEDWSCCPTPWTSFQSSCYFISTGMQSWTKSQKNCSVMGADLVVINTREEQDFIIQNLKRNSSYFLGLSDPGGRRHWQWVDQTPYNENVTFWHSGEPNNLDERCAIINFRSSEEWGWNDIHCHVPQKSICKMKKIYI
Description: The humanized antibodies of the present disclosure were assayed for affinity by the BIAcore experiment. The surface of a CM5 chip channel was activated with 50 mM NHS and 200 mM EDC (NHS and EDC from an amino coupling kit) mixed in a ratio of 1:1, and the anti-human IgG (Fc) antibody (diluted with a sodium acetate solution at pH 5.0, the concentration was 25 μg/mL) was injected for 420 s. Then 1 M ethanolamine was injected at a flow rate of 10 μL/min for 420 s to block excess active carboxyl groups on the chip. The humanized antibody was diluted to 1 μg/mL using a running buffer and injected into a detection channel flow cell at a flow rate of 10 μL/min. The sample injection was performed for 60 s for capture. The recombinant Human BDCA2 was diluted to 50 nM or 100 nM with 1× HBS-EP+ (pH 7.4), and diluted in a gradient of 1:2 to 0.39 nM. The test samples hBDCA2 at these concentration gradients were separately injected into the detection channel at a flow rate of 30 μL/min, wherein 2 samples at the concentration of 0 were used for removing background signals. The times for the antibody-antigen binding and dissociation were 180 s and 400 s, respectively. Data analysis was performed using Biacore Insight Evaluation Software (Version 2.0.15.12933). After subtraction of the signals from the reference channel (flow cell 1) and 0 concentration, a 1:1 binding model was selected for curve fitting, and kinetic parameters calculated.

B1: Hu033-03(BM3): humanized anti-BDCA2 IgG1 antibody from mAb033; heavy chain SEQ ID NO: 19, light chain SEQ ID NO: 20 (antibody)
heavy: EVQLVESGGGLVKPGGSLRLSCAASGFTFSSYGMSWVRQAPGKGLEWVSTISSGDSYTYYPDSVKGRFTISRDNAKNSLYLQMNSLRAEDTAVYYCARQIYYDYAYYFDFWGQGTTVTVSS[human IgG1 constant region not spelt out]
light: DIVLTQSPASLAVSPGQRATITCRASESVSFRTSHLMHWYQQKPGQPPKLLIYGASNLESGVPARFSGSGSETDFTLTINPVEAEDTANYFCQQSIEDPPTFGGGTKVEIKRTVAAPSVFIFPPSDEQLKSGTASVVCLLNNFYPREAKVQWKVDNALQSGNSQESVTEQDSKDSTYSLSSTLTLSKADYEKHKVYACEVTHQGLSSPVTKSFNRGEC
In the case of B1, the EC50 (human PBMC cells) is reported as 0.01 nM, the ka (recombinant Human BDCA2) is reported as 576000 M⁻¹ s⁻¹ and the kd (recombinant Human BDCA2) is reported as 0.000136 s⁻¹.

B2: Hu033-20(BM3): humanized anti-BDCA2 IgG1 antibody from mAb033; heavy chain SEQ ID NO: 21, light chain SEQ ID NO: 22 (antibody)
heavy: EVQLVESGGGLVKPGGSLRLSCAASGFTFRSYGMSWVRQAPGKRLEWVSTISSGDSYTYYPDSVKGRFTISRDNAKNSLYLQMNSLKAEDTAVYYCARQIYYDYAYYFDFWGQGTTVTVSS[human IgG1 constant region not spelt out]
light: DIVMTQSPDSLAVSLGERATINCRASESVSFRTSHLMHWYQQKPGQPPKLLIYGASNLESGVPDRFSGSGSGTDFTLTISSLQAEDVAVYYCQQSIEDPPTFGGGTKVEIKRTVAAPSVFIFPPSDEQLKSGTASVVCLLNNFYPREAKVQWKVDNALQSGNSQESVTEQDSKDSTYSLSSTLTLSKADYEKHKVYACEVTHQGLSSPVTKSFNRGEC
B2 gave an EC50 (human PBMC cells) of 0.01 nM, a ka (recombinant Human BDCA2) of 556000 M⁻¹ s⁻¹ and a kd (recombinant Human BDCA2) of 0.000149 s⁻¹.
